{
  "source": "PubChem BioAssay AID2546",
  "about": "(National Center for Advancing Translational Sciences (NCATS), 2010)",
  "note": "Hit rate of the full screen: of about 310,000 compounds, about 11,000 (3.5%) were called active. Inconclusive means that the source gave no clear call. Such entries were picked first, then a sample of the others. Calls follow the shape of the dose curve; as a rule, active = well fitted inhibition curve with a large enough effect; inconclusive = small, poorly fitted or top-dose-only effect, or effect the other way; inactive = flat fitted curve, though single readings scatter. Potencies of inconclusive entries are left out as doubtful fits. Potency is read from the fitted curve at half-maximal effect; tags tell the direction and shape of the fitted curve.",
  "data": [
    {"assay": "VP16 counterscreen qHTS for inhibitors of ROR gamma transcriptional activity;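 also: Gal4-VP16 expression switched on by copper sulfate through the metallothionein promoter; nearly all actives have a fitted effect of over 50% in size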", "conditions": "Drosophila S2 Gal4-VP16 UAS-luciferase, luminescence, 20 h; series mostly up to 53.6 µM", "values": [
      {"smiles": "COCc1cc(C)nc2sc(C(=O)NN)c(-n3cccc3)c12", "Potency": "inactive"},
      {"smiles": "Cc1ccc(C(=O)N(Cc2nc3ccccc3c(=O)[nH]2)C2CCCC2)cc1", "Potency": "active: 7.08 µM"},
      {"smiles": "Cc1csc(SCC(=O)c2cc(C)n(Cc3cccs3)c2C)n1", "Potency": "active: 8.91 µM"},
      {"smiles": "CCOc1c(/C=C(\\C#N)C(N)=O)c2ccccc2n1CC", "Potency": "inconclusive [activator, single point]"},
      {"smiles": "CC(C)CCn1c(N)c(S(=O)(=O)c2cccs2)c2nc3ccccc3nc21", "Potency": "inconclusive [inhibitor, single point]"},
      {"smiles": "O=C1C(Cl)=C(NC(=O)c2ccccc2)C(=O)C(Cl)=C1NC(=O)c1ccccc1", "Potency": "inconclusive [inhibitor, partial curve, poor fit]"},
      {"smiles": "CC(=O)c1ccc(N2CCN(c3ccc(S(=O)(=O)NCCCN(C)C)cc3[N+](=O)[O-])CC2)cc1", "Potency": "inconclusive [inhibitor, single point]"},
      {"smiles": "OCCNC(=S)c1ccccc1", "Potency": "inactive"},
      {"smiles": "O=C(CCS(=O)(=O)c1cccc2nonc12)NCc1ccc(Cl)cc1", "Potency": "inactive"},
      {"smiles": "O=C(Nc1ccc(F)cc1)c1nc(S(=O)(=O)Cc2ccccc2)ncc1Cl", "Potency": "active: 7.94 µM"},
      {"smiles": "O=C(c1ccccc1)c1nnc(-c2ccccc2F)o1", "Potency": "inconclusive [inhibitor, partial curve]"},
      {"smiles": "CC(C)(C)NNC(=S)Nc1ccc(S(=O)(=O)N2CCOCC2)cc1", "Potency": "inconclusive [inhibitor, single point]"},
      {"smiles": "COc1ccccc1Nc1nc(C)cs1", "Potency": "inconclusive [inhibitor, full curve]"},
      {"smiles": "c1ccc(C2=NNC(c3ccccn3)=NN2)nc1", "Potency": "inconclusive [inhibitor, single point]"},
      {"smiles": "CCOC(=O)c1c(C)c(C(=O)NCc2cccnc2)c(C)n1C", "Potency": "inactive"},
      {"smiles": "COc1ccc(OCC(O)CN2CCc3ccccc3C2)cc1", "note": "(stereo unspecified)", "Potency": "inactive"},
      {"smiles": "COC(=O)Cc1ccc2sc(-c3ccccc3)nc2c1", "Potency": "active: 15.8 µM"},
      {"smiles": "CCOc1ccc(/C=C2/SC(=O)NC2=S)cc1", "Potency": "inconclusive [inhibitor, single point]"},
      {"smiles": "COc1cc(C=O)ccc1OCCSc1ccc(Cl)cc1", "Potency": "inconclusive [inhibitor, partial curve]"},
      {"smiles": "Cc1csc(NC(=O)c2cc(=O)[nH]c3ccc(S(=O)(=O)N4CCOCC4)cc23)n1", "Potency": "inactive"},
      {"smiles": "COc1ccccc1CN1C[C@@H]2C[C@@H](c3ccc(C)cc3)N3CCC[C@@]23C1=O", "Potency": "inactive"},
      {"smiles": "Cc1cc(C)cc(NC(=S)NCc2cccnc2)c1", "Potency": "inconclusive [inhibitor, single point]"},
      {"smiles": "CC/C(C)=N/Nc1nc(-c2cc3cccc(OC)c3oc2=O)cs1", "Potency": "inconclusive [inhibitor, single point]"},
      {"smiles": "Cn1nc(CC(=O)NCc2ccc(F)cc2)c2ccccc2c1=O", "Potency": "inconclusive [inhibitor, single point]"},
      {"smiles": "O=C(NNc1nc(-c2ccc(Br)cc2)cs1)c1ccco1", "Potency": "inconclusive [inhibitor, single point]"},
      {"smiles": "CCOc1ccc(N/N=C(/C#N)C(N)=O)cc1", "Potency": "inactive"},
      {"smiles": "Cc1cc(C)c(C(=O)COC(=O)Cn2c(C)csc2=O)cc1C", "Potency": "inconclusive [activator, partial curve]"},
      {"smiles": "O=[N+]([O-])c1ccc(N2CCC(=NOCc3ccc(Cl)cc3)CC2)cc1", "Potency": "inconclusive [inhibitor, single point]"},
      {"smiles": "CCOc1ccc(CNC(=O)C(CC)n2nc(C)n3c(cc4occc43)c2=O)cc1OC", "note": "(stereo unspecified)", "Potency": "inconclusive [activator, single point]"},
      {"smiles": "COc1ccc(CCC(=O)Nc2ccc(Cn3ccnc3)cc2)cc1", "Potency": "inactive"},
      {"smiles": "O=C1COc2ccc(-c3csc(=Nc4ccc(OC(F)F)cc4)n3CC3CCCO3)cc2N1", "note": "(stereo unspecified)", "Potency": "inconclusive [inhibitor, single point]"},
      {"smiles": "Cc1nn(-c2ccccc2)c(Cl)c1CN(C(=O)CCl)c1cccc2ccccc12", "Potency": "inconclusive [inhibitor, single point]"},
      {"smiles": "CC(C)(C)OC(=O)CNC(=O)c1[nH]cnc1C(=O)NC1CCN(C(=O)OC(C)(C)C)CC1", "Potency": "inconclusive [inhibitor, full curve, poor fit]"},
      {"smiles": "S=C(NCCc1ccccc1)N1CCN(C(c2ccccc2)c2ccccc2)CC1", "Potency": "inconclusive [inhibitor, single point]"},
      {"smiles": "COc1ccc(Sc2ncnc3onc(C)c23)cc1", "Potency": "inconclusive [inhibitor, single point]"},
      {"smiles": "CN(CC(=O)Nc1ccc(F)c(F)c1)S(=O)(=O)c1cccs1", "Potency": "inconclusive [activator, single point]"},
      {"smiles": "CNC(=O)c1[nH]cnc1C(=O)Nc1ccccc1C", "Potency": "active: 7.94 µM"},
      {"smiles": "COc1ccc(S(=O)(=O)Nc2ccc(F)c(F)c2)cc1Cl", "Potency": "inconclusive [inhibitor, single point]"},
      {"smiles": "Cc1cccc(NC(=O)/C(=C/c2cccc([N+](=O)[O-])c2)NC(=O)c2cccs2)c1", "Potency": "inconclusive [inhibitor, partial curve]"},
      {"smiles": "Cn1cccc1C(=O)N1CCC2(CC1)CCN(c1ncccn1)CC2", "Potency": "inactive"},
      {"smiles": "CCCNC(=O)c1cc(S(=O)(=O)N2CCc3ccccc32)cn1C", "Potency": "active: 14.1 µM"},
      {"smiles": "Cc1csc(NC(=O)c2ccc3c(c2)OCO3)n1", "Potency": "inactive"},
      {"smiles": "O=C(CCNc1ccc(F)c(Cl)c1)c1ccco1", "Potency": "inconclusive [inhibitor, single point]"},
      {"smiles": "CC(C)C[C@H](N)c1nnc(SCC(=O)Nc2ccc(Br)cc2)o1", "Potency": "inactive"},
      {"smiles": "Cc1cc(C(=O)CSc2nnc(N)s2)c(C)n1Cc1ccco1", "Potency": "inconclusive [inhibitor, single point]"},
      {"smiles": "O=C(Oc1cccc2cccnc12)c1cccs1", "Potency": "active: 2.82 µM"},
      {"smiles": "COc1ccc(S(=O)(=O)N2CCc3ccccc32)cc1C(=O)O", "Potency": "inactive"},
      {"smiles": "COCCCn1cnc2c(c1=O)c1nc3ccccc3nc1n2-c1ccc(C)cc1", "Potency": "inactive"},
      {"smiles": "COc1ccccc1CCC(=O)Nc1nc2ccccc2[nH]1", "Potency": "inconclusive [inhibitor, single point]"},
      {"smiles": "CCCCOc1cc(C[C@@H]2CNC(=O)N2)ccc1OC", "Potency": "inactive"},
      {"smiles": "COc1ccc2[nH]c(C)c(CCNC(=S)Nc3cc(C)ccc3C)c2c1", "Potency": "inconclusive [inhibitor, single point]"},
      {"smiles": "O=C(Nc1ncc([N+](=O)[O-])s1)c1ccccc1Br", "Potency": "inconclusive [inhibitor, single point]"},
      {"smiles": "O=C(CCS(=O)(=O)c1ccc(Br)s1)N1CCc2ccccc21", "Potency": "inconclusive [inhibitor, single point]"},
      {"smiles": "COc1ccc(-c2cc(C(=O)n3cnc4ccccc43)c3ccccc3n2)cc1", "Potency": "inconclusive [inhibitor, single point]"},
      {"smiles": "NS(=O)(=O)c1ccc(NCc2cc(Cl)ccc2OCc2ccc(F)cc2)cc1", "Potency": "inactive"},
      {"smiles": "COP(=O)(OC)C(Nc1ccc(C)cc1)c1ccc([N+](=O)[O-])cc1", "note": "(stereo unspecified)", "Potency": "inconclusive [activator, full curve]"},
      {"smiles": "C=CCOc1cccc(/C=N/NC(=O)CN(c2cc(Cl)ccc2OC)S(=O)(=O)c2ccc(C)c([N+](=O)[O-])c2)c1", "Potency": "inactive"},
      {"smiles": "COc1cccc(/C=N/Nc2nnc(C)n2N)c1O", "Potency": "active: 3.16 µM"},
      {"smiles": "CCOc1ccc2nc(NC(=O)C3CCCO3)sc2c1", "note": "(stereo unspecified)", "Potency": "inactive"},
      {"smiles": "CCc1ccc2oc(=O)cc(CN3CCN(Cc4ccccc4)CC3)c2c1", "Potency": "inactive"},
      {"smiles": "CCNC(=S)N/N=C(\\C)c1ccco1", "Potency": "active: 12.6 µM"},
      {"smiles": "NC[C@@H]1O[C@H](c2ccccc2)Cc2c1ccc(O)c2O", "Potency": "active: 25.1 µM"},
      {"smiles": "Cc1cccc(OCCCOc2cccc3cccnc23)c1C", "Potency": "inconclusive [inhibitor, single point]"},
      {"smiles": "O=C(COc1ccc(/C=N/NC(=O)c2cc3ccccc3o2)cc1Br)Nc1ccccc1", "Potency": "active: 2.24 µM"},
      {"smiles": "Cc1cc(C)cc(OCC(=O)NCc2nc(-c3ccccc3)no2)c1", "Potency": "inconclusive [inhibitor, single point]"},
      {"smiles": "CCOC(=O)N1CCN(C(=O)c2ccccc2NS(=O)(=O)c2ccc(C)cc2)CC1", "Potency": "inactive"},
      {"smiles": "O=C(Cn1c2ccc(F)cc2c2nc3n(c(=O)c21)CCS3)NCC1CCCO1", "note": "(stereo unspecified)", "Potency": "inactive"},
      {"smiles": "CCNC(=S)Nc1cc(-c2ccc(Cl)cc2)[nH]n1", "Potency": "active: 11.2 µM"},
      {"smiles": "Cc1ccc(Cl)cc1-n1c(SCC(=O)NCCC2=CCCCC2)nc2n[nH]c(C)c2c1=N", "Potency": "inconclusive [inhibitor, single point]"},
      {"smiles": "COc1ccc(CN2CC(C(=O)NCCCN3CCCCC3)CC2=O)cc1", "note": "(stereo unspecified)", "Potency": "inactive"},
      {"smiles": "COc1ccc(C(CCNCc2ccc(OC(C)C)cc2)c2ccccc2OC)cc1", "note": "(stereo unspecified)", "Potency": "inconclusive [inhibitor, single point]"},
      {"smiles": "Oc1ccc(Nc2ncnc3ccccc23)cc1", "Potency": "inconclusive [activator, single point]"},
      {"smiles": "O=[N+]([O-])c1cnc(N2CCCCC2)c([N+](=O)[O-])c1", "Potency": "inconclusive [activator, single point]"},
      {"smiles": "CC1(C)CC(=O)C2=C(C1)Nc1cc(C(=O)c3ccccc3)ccc1NC2c1ccccn1", "note": "(stereo unspecified)", "Potency": "inconclusive [inhibitor, partial curve, poor fit]"},
      {"smiles": "COc1ccccc1NC(=O)c1csc2c1CCC(C)C2", "note": "(stereo unspecified)", "Potency": "inconclusive [inhibitor, single point]"},
      {"smiles": "O=c1[nH]c2ccccc2n1CCCSCCCn1c(=O)[nH]c2ccccc21", "Potency": "inconclusive [inhibitor, single point]"}
    ]}
  ]
}
